Data published in the supplement of paper PMC8728848.
The list shows a part of the results.

Experiments:
Test in all cases: glycan array binding signal (z-score within array); higher = stronger binding
Conditions in all cases: glycan notation: IUPAC condensed, linker removed
[1] = biological target: Fuc(a1-2)Gal(b1-4)GlcNAc(b1-3)Gal(b1-4)GlcNAc(b1-3)Gal(b1-4)GlcNAc
Method in brief: (§1)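 Glycan array binding is given as a within-array Z-score, which can be read as non-binding when negative. The arrays, 3228 of them, came from the Consortium for Functional Glycomics database and were retained only where the protein sequence was available. Z-scores were averaged across arrays of the same protein sequence at different concentrations or buffers and across linkers.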

[2] = biological target: Fuc(a1-2)Gal(b1-4)GlcNAc(b1-3)GalNAc
Method in brief: as §1

[3] = biological target: Fuc(a1-2)Gal(b1-4)GlcNAc(b1-3)[Fuc(a1-2)Gal(b1-4)GlcNAc(b1-6)]GalNAc
Method in brief: as §1

[4] = biological target: Fuc(a1-2)Gal(b1-4)GlcNAc(b1-3)[Fuc(a1-3)[Gal(b1-4)]GlcNAc(b1-6)]Gal(b1-4)Glc
Method in brief: as §1

[5] = biological target: Fuc(a1-2)Gal(b1-4)GlcNAc(b1-6)GalNAc
Method in brief: as §1

[6] = biological target: Fuc(a1-2)Gal(b1-4)GlcNAc6S
Method in brief: as §1

[7] = biological target: Fuc(a1-2)Gal(b1-4)[Fuc(a1-3)]GlcNAc
Method in brief: as §1

[8] = biological target: Fuc(a1-2)Gal(b1-4)[Fuc(a1-3)]GlcNAc(b1-2)Man(a1-3)[Fuc(a1-2)Gal(b1-4)[Fuc(a1-3)]GlcNAc(b1-2)Man(a1-6)]Man(b1-4)GlcNAc(b1-4)[Fuc(a1-6)]GlcNAc
Method in brief: as §1

[9] = biological target: Fuc(a1-2)Gal(b1-4)[Fuc(a1-3)]GlcNAc(b1-2)[Fuc(a1-2)Gal(b1-4)[Fuc(a1-3)]GlcNAc(b1-4)]Man(a1-3)[Fuc(a1-2)Gal(b1-4)[Fuc(a1-3)]GlcNAc(b1-2)Man(a1-6)]Man(b1-4)GlcNAc(b1-4)GlcNAc
Method in brief: as §1

[10] = biological target: Fuc(a1-2)Gal(b1-4)[Fuc(a1-3)]GlcNAc(b1-3)Gal(b1-4)[Fuc(a1-3)]GlcNAc
Method in brief: as §1

[11] = biological target: Fuc(a1-2)Gal(b1-4)[Fuc(a1-3)]GlcNAc(b1-3)Gal(b1-4)[Fuc(a1-3)]GlcNAc(b1-3)Gal(b1-4)[Fuc(a1-3)]GlcNAc
Method in brief: as §1

[12] = biological target: Fuc(a1-2)Gal(b1-4)[Fuc(a1-3)]GlcNAc(b1-3)GalNAc
Method in brief: as §1

[13] = biological target: Fuc(a1-2)Gal(b1-4)[Fuc(a1-3)]GlcNAc(b1-3)[Neu5Ac(a2-6)Gal(b1-4)GlcNAc(b1-6)]Gal(b1-4)Glc
Method in brief: as §1

[14] = biological target: Fuc(a1-2)Gal3S(b1-4)GlcNAc
Method in brief: as §1

[15] = biological target: Fuc(a1-2)Gal6S(b1-3)GlcNAc
Method in brief: as §1

[16] = biological target: Fuc(a1-2)Gal6S(b1-3)GlcNAc6S
Method in brief: as §1

Fuc(a1-2)Gal6S(b1-4)Glc = biological target: Fuc(a1-2)Gal6S(b1-4)Glc
Method in brief: as §1

[17] = biological target: Fuc(a1-2)Gal6S(b1-4)Glc6S
Method in brief: as §1

Fuc(a1-2)[Gal(a1-3)]Gal = biological target: Fuc(a1-2)[Gal(a1-3)]Gal
Method in brief: as §1

[18] = biological target: Fuc(a1-2)[Gal(a1-3)]Gal(b1-3)GalNAc
Method in brief: as §1

[19] = biological target: Fuc(a1-2)[Gal(a1-3)]Gal(b1-3)GalNAc(b1-3)Gal(a1-4)Gal(b1-4)Glc
Method in brief: as §1

[20] = biological target: Fuc(a1-2)[Gal(a1-3)]Gal(b1-3)GlcNAc
Method in brief: as §1

[21] = biological target: Fuc(a1-2)[Gal(a1-3)]Gal(b1-3)GlcNAc(b1-2)Man(a1-3)[Fuc(a1-2)[Gal(a1-3)]Gal(b1-3)GlcNAc(b1-2)Man(a1-6)]Man(b1-4)GlcNAc(b1-4)GlcNAc
Method in brief: as §1

[22] = biological target: Fuc(a1-2)[Gal(a1-3)]Gal(b1-3)GlcNAc(b1-2)Man(a1-3)[Fuc(a1-2)[Gal(a1-3)]Gal(b1-3)GlcNAc(b1-2)Man(a1-6)]Man(b1-4)GlcNAc(b1-4)[Fuc(a1-6)]GlcNAc
Method in brief: as §1

[23] = biological target: Fuc(a1-2)[Gal(a1-3)]Gal(b1-3)GlcNAc(b1-3)GalNAc
Method in brief: as §1

[24] = biological target: Fuc(a1-2)[Gal(a1-3)]Gal(b1-3)GlcNAc(b1-6)GalNAc
Method in brief: as §1

[25] = biological target: Fuc(a1-2)[Gal(a1-3)]Gal(b1-4)Glc
Method in brief: as §1

[26] = biological target: Fuc(a1-2)[Gal(a1-3)]Gal(b1-4)GlcNAc
Method in brief: as §1

[27] = biological target: Fuc(a1-2)[Gal(a1-3)]Gal(b1-4)GlcNAc(b1-2)Man
Method in brief: as §1

[28] = biological target: Fuc(a1-2)[Gal(a1-3)]Gal(b1-4)GlcNAc(b1-2)Man(a1-3)[Fuc(a1-2)[Gal(a1-3)]Gal(b1-4)GlcNAc(b1-2)Man(a1-6)]Man(b1-4)GlcNAc(b1-4)GlcNAc
Method in brief: as §1

B1: PX14367A-bth-493-35-493 (Bacteroides thetaiotaomicron) (protein)
chain: VSSDQVAVAGNAERLFNGAWYNLFEYGTTYANIGYRALQCQDDMMASDVVSRPKYGFNSSYQFNDVAIPSDGRTSFAWYLIYKTIDNCNTAISIKGDSEELRQAQGQALALRAFCYLHLVQHYQFTYLKDKDAPCVPIYTEPTTSGTKPKGKSTVAQVYQQIFDDLNLAQDYLTNYVRKGDGQKFKPNTDVVNGLMARAYLLTGQWGEAAKAAEAARKGYSLMTTTAEYEGFNNISNKEWIWGSPQTLSQSDASYNFYYLDATYVGAYSSFMADPHLMDTFVKGDIRLPLFQWMREGYLGYKKFHMRSDDTADLVLMRSAEMYLIEAEAKVRDGVALDQAVAPLNTLRTARGVGNYDVTGKTKEQVIDEILMERRRELWGEGFGITDVLRNQKAVERMALSEDMQKTEVDCWQEGGSFAKRNPLGHWFLNFPDGKAFSANSSYYLYAIPEKEINANPNL
glycan array binding signal (z-score) [1]: -0.456
glycan array binding signal (z-score) [2]: -0.751
glycan array binding signal (z-score) [3]: 0.211
glycan array binding signal (z-score) [4]: -0.275
glycan array binding signal (z-score) [5]: 0.215
glycan array binding signal (z-score) [6]: 0.139
glycan array binding signal (z-score) [7]: -0.053
glycan array binding signal (z-score) [8]: 0.458
glycan array binding signal (z-score) [9]: 0.017
glycan array binding signal (z-score) [10]: 0.321
glycan array binding signal (z-score) [11]: -0.408
glycan array binding signal (z-score) [12]: -0.195
glycan array binding signal (z-score) [13]: -0.686
glycan array binding signal (z-score) [14]: -0.311
glycan array binding signal (z-score) [15]: -0.51
glycan array binding signal (z-score) [16]: 0.455
glycan array binding signal (z-score) (Fuc(a1-2)Gal6S(b1-4)Glc): 0.487
glycan array binding signal (z-score) [17]: -0.358
glycan array binding signal (z-score) (Fuc(a1-2)[Gal(a1-3)]Gal): -0.53
glycan array binding signal (z-score) [18]: -0.224
glycan array binding signal (z-score) [19]: -0.58
glycan array binding signal (z-score) [20]: -0.071
glycan array binding signal (z-score) [21]: 0.575
glycan array binding signal (z-score) [22]: -0.284
glycan array binding signal (z-score) [23]: -0.51
glycan array binding signal (z-score) [24]: -0.44
glycan array binding signal (z-score) [25]: -0.315
glycan array binding signal (z-score) [26]: 0.28
glycan array binding signal (z-score) [27]: 0.293
glycan array binding signal (z-score) [28]: 1.26
